48 compounds from PubChem BioAssay AID1508623 (National Center for Advancing Translational Sciences (NCATS), 2021) can be followed below.

Each structure is given as a SMILES string. The campaign covered roughly 48,000 compounds. About 450 (0.94%) were called active. Inconclusive results (about 19%) are left out. Calls follow the shape of the dose curve; as a rule, active = well fitted inhibition curve with a large enough effect; inconclusive = small, poorly fitted or top-dose-only effect; inactive = no such curve, though single readings can be large or run the other way. The list shows a part of the results.

The test in a line: Primary qHTS for Identification of Small Molecule Inhibitors of Huntingtin Promoter Activity. Also: nearly all actives have a fitted effect of over 50% in size. The conditions noted are these: HEK293 HTT promoter firefly luciferase reporter (activity 0% = vehicle and -100% = no light), 24 h; series mostly up to 57.5 µM; activity change, negative = inhibition: at the top concentration. Put shortly: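 HEK293 cells carrying firefly luciferase reporters were seeded at 2,500 per well in Opti-MEM and cultured for 24 h. They were then treated with compounds at up to 57.5 uM final for 24 h at 37 degrees C before Dual-Glo luminescence readout.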
As to `COc1ccc(N2CCN(C(=O)C(C)n3nc(C)c4sc5ccccc5c4c3=O)CC2)cc1` (stereo not drawn), the “activity change, negative = inhibition” value is inactive: -0.0516%. Turning to `CCOC(=O)c1c(NC(=O)C2c3ccccc3Oc3ccccc32)sc2c1CCC(CC)C2` (stereo not drawn), the “activity change, negative = inhibition” value is inactive: -9.12%.

On to `CCc1ccc(NC(=O)Cn2c(=O)n(CCCC(=O)NCc3ccc4c(c3)OCO4)c(=O)c3ccccc32)cc1`, for which the “activity change, negative = inhibition” value was inactive: -12.2%. Turning to `CCS(=O)(=O)NCC(c1ccco1)N1CCN(c2ccc(F)cc2)CC1` (stereo not drawn), the “activity change, negative = inhibition” value is inactive: -13.1%. The value for `CC(=O)C1=C(c2cccc([N+](=O)[O-])c2)N(C(C)=O)n2c(nnc2-c2ccc(C)cc2)S1` was inactive: -11.8%; that for `CCOC(=O)c1c(S(=O)(=O)N2CCCC(C(=O)N3CCN(c4cc(C)ccc4C)CC3)C2)c(C)n(C)c1C` (stereo not drawn) was inactive: -12.6%; that for `CCN(CC)C(=O)c1ccc(O)c(OC)c1` was inactive: -1.53%. The same measure for `Cc1nn2c(C)c(C(=O)N3CCN(c4ccc(Cl)cc4)CC3)cnc2c1-c1ccc(F)cc1`: inactive: -11.8%. The value for `O=S(=O)(c1ccc(-c2cnc(C3CC3)o2)cc1)N1CCN(c2ccccc2F)CC1` was inactive: -21.6%; that for `COc1cc2c(cc1OC)n(CC(=O)c1ccc(C)cc1C)c(=O)n1nc(CCn3nc(C)cc3C)nc21` was inactive: -8.25%.

On to `COc1ccc(NC(=O)c2cc(-c3ccccc3F)no2)cc1`, for which the “activity change, negative = inhibition” value was inactive: 1.18%. The value for `Cc1cccc(Nc2sc(C(=O)c3ccc(Cl)cc3)c(N)c2C(N)=O)c1` was inactive: -16.7%; that for `COc1cccc(CNC(=O)Cn2nc(C)c3sc4ccccc4c3c2=O)c1OC` was inactive: -6.94%; that for `Cc1cccc(C)c1OCC(=O)N(Cc1ccco1)Cc1ccco1` was inactive: -12.7%. The same measure for `C=Cc1ccc(Cn2c(C)c(CNCCc3ccc(OCC)cc3)c(C(=O)O)c2C)cc1`: inactive: 0%; for `CCn1cc(C(=O)N2CCN(c3cccc(Cl)c3)CC2)c(=O)c2cc(S(=O)(=O)N3CCC(C)CC3)ccc21`: inactive: -15.4%; for `Cc1ccc2c(=O)cc(CSc3ncn[nH]3)[nH]c2c1C`: inactive: -2.37%. Take `CCOC(=O)c1c(C)[nH]c(C)c1S(=O)(=O)N1CCC(C(=O)N2CCN(c3ccc(F)cc3)CC2)CC1`: the “activity change, negative = inhibition” value is inactive: -21.7%.

Turning to `Cc1ccc2nc(NC(=O)c3ccc(S(=O)(=O)N4CCC(C)CC4)cc3)sc2c1`, the “activity change, negative = inhibition” value was inactive: -0.966%. The value for `Cc1ccccc1CN1C(=O)c2ccccc2Sc2ccc(C(=O)NCCc3ccccc3)cc21` was inactive: -29.4%; that for `Cc1ccc(N2CC(NC(=O)c3cccs3)CC2=O)cc1` (stereo not drawn) was inactive: -17.6%; that for `O=C(CCCN1C(=O)c2cccnc2Oc2ccc(Cl)cc21)NCc1ccc(F)cc1` was inactive: -6.48%. The value for `CN1CCN(CCNC(=O)c2cnn(-c3ccc(F)cc3)c2C2CCN(C(=O)OC(C)(C)C)CC2)CC1` was inactive: -3.82%.

Turning to `O=C(Nc1ccccc1)Nc1nnc(SCC(=O)N2CCCCC2)s1`, the “activity change, negative = inhibition” value is inactive: -21.3%. Take `Cc1ccc(N2C(=O)CSC23C(=O)N(CC(=O)NCc2ccccc2)c2ccccc23)cc1` (stereo not drawn): the “activity change, negative = inhibition” value was inactive: -25.4%.

As for `CCOc1ccc(-n2cc(-c3ccccc3)c3c(NC4CCCC4)ncnc32)cc1`, the “activity change, negative = inhibition” value was inactive: -13.5%. Take `O=C(CN1C(=O)C2(SCC(=O)N2c2ccc(F)cc2)c2ccccc21)NC1CCCCC1` (stereo not drawn): the “activity change, negative = inhibition” value is inactive: -14.4%.

Consider `Cc1ccc2c(c1)C(=O)OC(C(=O)Nc1ccccc1C(=O)O)C2` (stereo not drawn), for which the “activity change, negative = inhibition” value is inactive: 16.6%. Turning to `Cc1cc2oc(C(=O)N(Cc3ccc(N(C)C)cc3)Cc3ccco3)c(C)c2cc1Cl`, the “activity change, negative = inhibition” value was inactive: -20.2%. The value for `Cc1ccccc1Nc1nc(N)c(C(=O)c2ccccc2Cl)s1` was inactive: -27.8%; that for `Oc1cc2c(cc1O)C1c3ccc(O)c(O)c3OCC1(O)C2` (stereo not drawn) was inactive: -5.99%. `CCOc1ccc(NC(=O)c2cnc3sc(N4CCOCC4)nn3c2=O)cc1`: the “activity change, negative = inhibition” value is inactive: 0.849%. `COc1cccc(N2CC(NC(=O)COc3ccccc3F)CC2=O)c1` (stereo not drawn): the “activity change, negative = inhibition” value was inactive: -21.3%. The value for `Cc1ccc(C)c(NC(=O)CSc2ccc3nc(-c4ccccc4)cn3n2)c1` was inactive: 8.08%; that for `O=C(Nc1cccc(C(=O)OCc2cc(=O)n3nc(C4CC4)sc3n2)c1)c1cccc(Cl)c1` was inactive: -13.1%; that for `COc1ccc(Nc2oc(/C=C/c3ccccc3OC)nc2C#N)cc1` was inactive: 27.6%. The value for `COc1cc(C(=O)NCCc2sc(-c3cccc(F)c3)nc2C)cc(OC)c1OC` was inactive: -18.3%; that for `O=C(Nc1ccccc1Br)c1cc(CN2CCCC2)on1` was inactive: 31.4%. As for `COc1cc2c(cc1NC(=O)c1ccccc1C)n(C)c(=O)n2C`, the “activity change, negative = inhibition” value was inactive: 9.75%. The value for `CCc1ccc(CNC(=O)c2ccc(-c3nc(CSc4ccc(C)cc4)c(C)o3)cc2)cc1` was inactive: -14.5%. The same measure for `O=C(CSc1oc(-c2ccc(F)cc2)nc1S(=O)(=O)c1ccccc1)NC1CCCCC1`: inactive: -16.1%. Regarding `CCSc1nnc(NC(=O)c2cc(=O)c3cc(C)ccc3o2)s1`, the “activity change, negative = inhibition” value is inactive: 3.68%. Turning to `COc1cccc(CNC(=O)CCn2cnc3ccccc3c2=O)c1`, the “activity change, negative = inhibition” value is inactive: -9.53%. For `CC(CCc1ccccc1)NC(=O)Cn1ncc2c3ccccc3n(Cc3ccccc3)c2c1=O` (stereo not drawn), the “activity change, negative = inhibition” value was inactive: 3.44%. Consider `O=C(CCN1C(=O)c2ccccc2Sc2ncccc21)Nc1ccc(F)cc1`, for which the “activity change, negative = inhibition” value is inactive: -5.73%. As for `CCOC(=O)c1ccc(NC(=O)c2oc3c(c2C)-c2nn(Cc4ccccc4Cl)cc2CC3)cc1`, the “activity change, negative = inhibition” value was inactive: -15.7%.

In the case of `CCOC(=O)c1cccc(NC(=O)CCS(=O)(=O)c2ccc3c(c2)CC(=O)N3C)c1`, the “activity change, negative = inhibition” value was inactive: -7.55%. Consider `Cc1ccc(/C=C(\C#N)c2nc(-c3ccc(-c4ccccc4)cc3)cs2)cc1`, for which the “activity change, negative = inhibition” value was inactive: 12%.
